According to paper PMC3142473 (Journal of medicinal chemistry, 2008):

Tests used:
[1] = tested on: Sprague–Dawley rats; settings: for locomotor activity (total horizontal activity): ip, Figure 6A, p < 0.05 vs vehicle
[2] = tested on: Sprague–Dawley rats; assay: Maximal electroshock-induced seizures in rats; settings: for duration of tonic hind limb extension: 30 mg/kg ip, 30 min pre-electroshock
[3] = biological target: recombinant rat NR1/NR2B receptors (Rattus norvegicus, UniProt P35439+Q00960)
[4] = biological target: NR1/NR2A (Rattus norvegicus, UniProt Q00959); assay: Two electrode voltage clamp, oocytes, NR1/NR2A; type: cell-based; settings: 3 μM; 50 μM glutamate plus 30 μM glycine
[5] = biological target: NR1/NR2C (Rattus norvegicus, UniProt Q00961); assay: Two electrode voltage clamp, oocytes, NR1/NR2C; type: cell-based; settings: 3 μM; 50 μM glutamate plus 30 μM glycine
[6] = biological target: NR1/NR2D (Rattus norvegicus, UniProt Q62645); assay: Two electrode voltage clamp, oocytes, NR1/NR2D; type: cell-based; settings: 3 μM; 50 μM glutamate plus 30 μM glycine
[7] = tested on: AMPA receptor subunit combinations GluR3, GluR4, and GluR2/3; assay: Two electrode voltage clamp, oocytes, recombinant AMPA receptors; type: cell-based, rat; settings: 3 μM; activated by 50 μM kainate
[8] = tested on: kainate receptor GluR6 and GluR6/KA1; assay: Two electrode voltage clamp, oocytes, recombinant kainate receptors; type: cell-based, rat; settings: 3 μM; GluR6 by 3 nM domoate, GluR6/KA1 by 100 μM AMPA
[9] = biological target: L-type calcium channels; assay: Binding to L-type calcium channels; settings: read-out: IC50, L-type calcium channel binding; data not shown
[10] = biological target: N-type calcium channels (Homo sapiens, UniProt Q00975); assay: Binding to N-type calcium channels
UniProt Q00975, sequence (Q00975 whole entry): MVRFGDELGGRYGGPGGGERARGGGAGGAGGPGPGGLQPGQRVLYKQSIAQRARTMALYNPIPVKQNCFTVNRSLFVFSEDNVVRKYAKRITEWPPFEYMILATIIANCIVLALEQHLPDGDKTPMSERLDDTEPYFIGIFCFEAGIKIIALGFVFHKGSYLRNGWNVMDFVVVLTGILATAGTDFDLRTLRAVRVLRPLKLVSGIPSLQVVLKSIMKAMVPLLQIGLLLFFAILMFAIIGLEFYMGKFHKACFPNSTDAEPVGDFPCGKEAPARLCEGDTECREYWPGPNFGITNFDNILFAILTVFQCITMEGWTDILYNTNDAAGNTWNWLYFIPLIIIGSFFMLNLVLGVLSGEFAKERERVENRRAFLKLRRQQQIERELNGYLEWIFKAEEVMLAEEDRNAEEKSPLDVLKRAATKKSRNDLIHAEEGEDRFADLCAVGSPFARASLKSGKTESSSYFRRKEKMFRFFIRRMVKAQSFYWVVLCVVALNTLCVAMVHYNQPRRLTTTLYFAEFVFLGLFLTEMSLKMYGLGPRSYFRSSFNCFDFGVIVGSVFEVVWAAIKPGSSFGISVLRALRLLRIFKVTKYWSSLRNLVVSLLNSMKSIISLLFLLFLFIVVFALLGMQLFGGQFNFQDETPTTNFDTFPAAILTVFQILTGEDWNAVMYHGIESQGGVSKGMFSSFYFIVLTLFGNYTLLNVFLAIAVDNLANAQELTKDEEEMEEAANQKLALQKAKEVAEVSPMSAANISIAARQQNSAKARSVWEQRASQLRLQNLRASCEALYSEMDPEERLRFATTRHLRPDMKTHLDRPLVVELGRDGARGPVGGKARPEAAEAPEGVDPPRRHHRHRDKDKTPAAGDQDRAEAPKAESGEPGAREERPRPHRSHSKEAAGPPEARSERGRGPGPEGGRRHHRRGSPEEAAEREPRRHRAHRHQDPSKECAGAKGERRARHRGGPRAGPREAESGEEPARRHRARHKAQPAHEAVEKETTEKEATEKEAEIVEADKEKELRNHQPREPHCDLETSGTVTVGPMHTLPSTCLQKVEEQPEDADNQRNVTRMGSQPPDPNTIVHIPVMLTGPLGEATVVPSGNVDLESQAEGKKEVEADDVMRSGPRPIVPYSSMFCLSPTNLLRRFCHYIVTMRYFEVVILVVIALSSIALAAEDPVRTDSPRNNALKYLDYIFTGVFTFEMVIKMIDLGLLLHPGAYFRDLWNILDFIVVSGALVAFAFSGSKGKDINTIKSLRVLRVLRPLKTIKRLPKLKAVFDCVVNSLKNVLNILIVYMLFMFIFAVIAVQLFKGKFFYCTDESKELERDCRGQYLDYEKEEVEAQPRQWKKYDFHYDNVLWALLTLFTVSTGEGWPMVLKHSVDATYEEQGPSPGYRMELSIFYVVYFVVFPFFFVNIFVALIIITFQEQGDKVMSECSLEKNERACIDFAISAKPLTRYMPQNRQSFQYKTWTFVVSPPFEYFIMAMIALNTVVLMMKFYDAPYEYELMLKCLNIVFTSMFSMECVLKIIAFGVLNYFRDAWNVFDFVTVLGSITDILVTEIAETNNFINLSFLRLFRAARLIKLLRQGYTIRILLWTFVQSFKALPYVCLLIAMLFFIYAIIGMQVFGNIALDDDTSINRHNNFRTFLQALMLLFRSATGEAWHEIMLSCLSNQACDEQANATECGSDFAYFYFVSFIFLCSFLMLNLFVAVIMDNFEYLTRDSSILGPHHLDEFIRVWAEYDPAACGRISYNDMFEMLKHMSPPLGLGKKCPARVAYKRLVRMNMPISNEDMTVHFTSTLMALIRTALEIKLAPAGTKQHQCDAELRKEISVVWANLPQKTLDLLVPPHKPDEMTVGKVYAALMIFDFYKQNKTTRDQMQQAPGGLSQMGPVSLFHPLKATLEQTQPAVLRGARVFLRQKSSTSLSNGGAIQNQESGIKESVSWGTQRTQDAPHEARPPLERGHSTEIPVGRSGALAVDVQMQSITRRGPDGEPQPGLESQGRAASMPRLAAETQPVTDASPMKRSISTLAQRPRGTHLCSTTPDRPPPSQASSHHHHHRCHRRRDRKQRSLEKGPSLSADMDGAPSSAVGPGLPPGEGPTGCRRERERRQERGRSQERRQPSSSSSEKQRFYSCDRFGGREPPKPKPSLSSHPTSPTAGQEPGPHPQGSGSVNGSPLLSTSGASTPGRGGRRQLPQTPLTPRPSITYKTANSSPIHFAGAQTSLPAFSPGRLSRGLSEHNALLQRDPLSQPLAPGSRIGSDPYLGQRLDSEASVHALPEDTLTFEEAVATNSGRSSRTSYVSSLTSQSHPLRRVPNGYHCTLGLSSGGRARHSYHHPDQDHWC

[11] = biological target: α-2 adrenergic receptors; assay: Binding to α-2 adrenergic receptors; settings: read-out: α-2 adrenergic receptor binding IC50
[12] = tested on: C57Bl/6 mice; assay: Transient focal ischemia; type: in vivo, mouse; settings: 30 mg/kg ip 30 min before 30 min MCA occlusion; 24 h survival; p < 0.05
[13] = Mouse plasma binding; type: in vitro ADME
[14] = Human plasma binding; type: in vitro ADME
[15] = tested on: mice; settings: for rotorod performance (latency to fall): day 5
[16] = pKa determination
[17] = Plasma half-life and brain exposure
[18] = tested on: cultured rat cortical neurons; assay: NMDA-mediated neurotoxicity of cultured rat cortical neurons; settings: 10 min 100 μM NMDA plus 10 μM glycine; 100 μM D-APV = 100%

O=C(O)[C@@H]1C[C@H](CP(=O)(O)O)CCN1 (racemic) [selfotel]
locomotor activity (total horizontal activity) [1]: locomotor-stimulating activity

CN(CCc1ccc(Cl)c(Cl)c1)CC(O)COc1ccc(NS(C)(=O)=O)cc1 (stereo not drawn) [66/104]
duration of tonic hind limb extension [2]: significantly reduced
voltage dependence of inhibition [3]: voltage-independent

CS(=O)(=O)Nc1ccc(OC[C@@H](O)CNCCc2ccc(Cl)c(Cl)c2)cc1 [Compound 29, (S)-1-(4-Methanesulfonamidephenoxy)-3-(3,4-dichlorophenylethylamino)-2-propanol]
effect on evoked current, NR1/NR2A [4]: no effect
effect on evoked current, NR1/NR2C [5]: no effect
effect on evoked current, NR1/NR2D [6]: no effect
effect on recombinant AMPA receptors [7]: no detectable effects
effect on recombinant kainate receptors [8]: no detectable effects
IC50 [9]: 5 to 10 µM
IC50 [10]: 5 to 10 µM
IC50 [11]: > 3 µM
infarct volume [12]: significant reduction
plasma binding [13]: 88%
plasma binding [14]: 98%
effect on locomotor activity ([1]; 300 mg/kg ip): virtually no effect
rotorod performance (latency to fall) ([15]; 30 mg/kg ip 20 min before first trial): does not impair performance
pKa ([16]; amino group): 9
pKa ([16]; sulfonamide group): 8
duration of tonic hind limb extension [2]: did not significantly reduce
tonic hind limb extension duration ([2]; 100 mg/kg, p < 0.001, n = 10): 68 ± 6.1 % of control
peak brain concentration ([17]; 30 mg/kg ip): 0.17 µM
occupancy of NR2B receptors ([17]; doses administered for transient ischemia, for 2 h post surgery): exceed 60%
plasma levels above the IC50 for hERG binding ([17]; free plasma concentration): 2–3 fold
neuroprotection against NMDA-induced cell death (LDH release) [18]: neuroprotective in a concentration-dependent fashion
Hill slope [3]: 0.7
IC50 [3]: 0.033 µM
IC50 R/S (enantiomeric) ratio ([3]; R vs S enantiomer): 3.8
surmountability of inhibition by increased glycine or glutamate ([3]; n = 3 oocytes each): not surmountable
maximal inhibition ([3]; saturating concentrations): 83%

CS(=O)(=O)Nc1ccc(OC[C@@H](O)CN(CCO)CCc2ccc(Cl)c(Cl)c2)cc1 [Compound 68]
duration of tonic hind limb extension [2]: significantly reduced

C[C@]12N[C@H](Cc3ccccc31)c1ccccc12 [Compound 110, (+)MK-801]
rotorod performance (latency to fall) ([15]; 0.3 mg/kg ip): significant impairment in performance
rotorod performance ([15]; 0.6 mg/kg, day 5 (not shown)): complete ataxia

CCc1cccc(N(C)C(N)=Nc2cccc3ccccc23)c1 [aptiganel]
locomotor activity (total horizontal activity) [1]: locomotor-stimulating activity

Like-named read-outs stand apart in the source and are kept apart here.
